Where a chain is given by its changes, count along the chain named. Numbers in names are those of the source. Results are given in words; binding and its absence hold for the method and conditions named. For part of these data: In cells and extracts the contact can be indirect. Some results given as binding are weak or reduced against the parent protein; the word gives no strength. Tags and fused reporters may be left off the sequences shown.
T1: GST-Arl1QL (Arf-like protein 1, Gln71 to Leu, putative active GTP-bound form) (human) (UniProt P40616)
T1 sequence: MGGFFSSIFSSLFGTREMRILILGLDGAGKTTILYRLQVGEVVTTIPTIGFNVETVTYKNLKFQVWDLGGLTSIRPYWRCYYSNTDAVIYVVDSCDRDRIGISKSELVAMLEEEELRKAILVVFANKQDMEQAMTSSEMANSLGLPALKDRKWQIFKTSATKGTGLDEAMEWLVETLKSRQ

Sequences of proteins named here, by UniProt entry; tags and fusion partners are left off.
UniProt Q13439: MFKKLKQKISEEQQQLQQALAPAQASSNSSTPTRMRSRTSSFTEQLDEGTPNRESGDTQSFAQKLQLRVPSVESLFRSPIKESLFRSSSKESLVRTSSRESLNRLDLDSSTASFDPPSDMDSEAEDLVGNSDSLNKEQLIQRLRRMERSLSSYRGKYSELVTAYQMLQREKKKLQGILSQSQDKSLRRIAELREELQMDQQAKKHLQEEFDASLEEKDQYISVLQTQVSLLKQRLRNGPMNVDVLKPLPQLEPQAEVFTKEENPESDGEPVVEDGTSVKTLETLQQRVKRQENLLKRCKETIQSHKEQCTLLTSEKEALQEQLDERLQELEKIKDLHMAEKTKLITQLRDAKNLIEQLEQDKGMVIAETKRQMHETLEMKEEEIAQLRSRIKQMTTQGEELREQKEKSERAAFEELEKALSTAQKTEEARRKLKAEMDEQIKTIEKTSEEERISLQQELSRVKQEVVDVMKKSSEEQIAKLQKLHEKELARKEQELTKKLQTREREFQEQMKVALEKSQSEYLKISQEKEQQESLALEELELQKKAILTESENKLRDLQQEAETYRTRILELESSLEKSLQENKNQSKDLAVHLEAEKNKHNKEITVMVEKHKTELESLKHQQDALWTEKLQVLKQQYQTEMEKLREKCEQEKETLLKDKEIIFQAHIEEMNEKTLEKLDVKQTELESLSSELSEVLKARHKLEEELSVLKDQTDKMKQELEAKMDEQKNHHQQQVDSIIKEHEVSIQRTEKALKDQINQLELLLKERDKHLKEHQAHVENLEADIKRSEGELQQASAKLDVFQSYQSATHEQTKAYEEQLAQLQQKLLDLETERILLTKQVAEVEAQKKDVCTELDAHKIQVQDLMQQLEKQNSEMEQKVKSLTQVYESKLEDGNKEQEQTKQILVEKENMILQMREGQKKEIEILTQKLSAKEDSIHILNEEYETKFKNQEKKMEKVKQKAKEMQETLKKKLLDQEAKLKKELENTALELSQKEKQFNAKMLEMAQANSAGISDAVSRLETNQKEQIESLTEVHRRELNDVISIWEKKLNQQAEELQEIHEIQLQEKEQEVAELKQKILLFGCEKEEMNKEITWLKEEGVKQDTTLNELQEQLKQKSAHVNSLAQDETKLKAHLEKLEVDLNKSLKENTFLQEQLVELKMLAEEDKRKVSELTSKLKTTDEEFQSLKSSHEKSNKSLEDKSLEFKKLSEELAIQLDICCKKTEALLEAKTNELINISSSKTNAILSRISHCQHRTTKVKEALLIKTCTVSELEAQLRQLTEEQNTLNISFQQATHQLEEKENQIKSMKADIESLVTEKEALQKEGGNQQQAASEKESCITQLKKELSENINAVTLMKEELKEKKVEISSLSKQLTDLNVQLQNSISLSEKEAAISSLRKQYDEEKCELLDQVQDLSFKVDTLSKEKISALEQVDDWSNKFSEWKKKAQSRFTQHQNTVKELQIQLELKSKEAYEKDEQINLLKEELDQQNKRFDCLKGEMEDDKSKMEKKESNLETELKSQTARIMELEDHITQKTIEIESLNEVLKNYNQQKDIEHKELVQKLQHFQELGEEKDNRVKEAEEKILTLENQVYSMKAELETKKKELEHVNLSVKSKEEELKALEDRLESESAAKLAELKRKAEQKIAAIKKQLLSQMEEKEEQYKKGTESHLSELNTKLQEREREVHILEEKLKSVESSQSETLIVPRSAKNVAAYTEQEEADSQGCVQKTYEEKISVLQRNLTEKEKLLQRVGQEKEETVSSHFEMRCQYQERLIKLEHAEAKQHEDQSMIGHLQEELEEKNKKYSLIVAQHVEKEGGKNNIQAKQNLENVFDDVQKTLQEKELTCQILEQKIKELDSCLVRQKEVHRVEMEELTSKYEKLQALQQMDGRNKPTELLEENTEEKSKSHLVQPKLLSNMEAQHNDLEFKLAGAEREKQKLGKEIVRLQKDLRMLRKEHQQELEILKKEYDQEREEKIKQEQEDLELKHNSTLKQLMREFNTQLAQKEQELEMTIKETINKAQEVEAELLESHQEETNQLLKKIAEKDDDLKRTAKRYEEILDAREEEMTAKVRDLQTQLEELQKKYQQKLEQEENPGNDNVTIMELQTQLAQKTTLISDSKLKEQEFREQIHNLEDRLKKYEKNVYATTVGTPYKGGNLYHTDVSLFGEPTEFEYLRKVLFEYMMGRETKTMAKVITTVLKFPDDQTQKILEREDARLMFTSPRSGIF

T2: LexA DNA-binding domain fusion of Arl1QL (human) (UniProt P40616)
T2 sequence: T1 sequence

B1: arfaptin-1a (Arf-interacting protein 1, short isoform), endogenous (natural protein, human (endogenous in HeLa), UniProt P53367-2 1-341, looked up)
chain: MAQESPKNSAAEIPVTSNGEVDDSREHSFNRDLKHSLPSGLGLSETQITSHGFDNTKEGVIEAGAFQGGQRTQTKSGPVILADEIKNPAMEKLELVRKWSLNTYKCTRQIISEKLGRGSRTVDLELEAQIDILRDNKKKYENILKLAQTLSTQLFQMVHTQRQLGDAFADLSLKSLELHEEFGYNADTQKLLAKNGETLLGAINFFIASVNTLVNKTIEDTLMTVKQYESARIEYDAYRTDLEELNLGPRDANTLPKIEQSQHLFQAHKEKYDKMRNDVSVKLKFLEENKVKVLHNQLVLFHNAIAAYFAGNQKQLEQTLKQFHIKLKTPGVDAPSWLEEQ
notes: arfaptin-1a, short isoform of arfaptin-1; lacks the insertion (residues 69-100) of arfaptin-1b; also called arfaptin-1a (short form); source: endogenous, HeLa lysate
B2: golgin-97, endogenous (protein, UniProt Q92805 1-767)
chain: MFAKLKKKIAEETAVAQRPGGATRIPRSVSKESVASMGADSGDDFASDGSSSREDLSSQLLRRNEQIRKLEARLSDYAEQVRNLQKIKEKLEIALEKHQDSSMRKFQEQNETFQANRAKMAEGLALALARKDQEWSEKMDQLEKEKNILTAQLQEMKNQSMNLFQRRDEMDELEGFQQQELSKIKHMLLKKEESLGKMEQELEARTRELSRTQEELMNSNQMSSDLSQKLEELQRHYSTLEEQRDHVIASKTGAESKITALEQKEQELQALIQQLSIDLQKVTAETQEKEDVITHLQEKVASLEKRLEQNLSGEEHLQELLKEKTLAEQNLEDTRQQLLAARSSQAKAINTLETRVRELEQTLQASEEQLQQSKGIVAAQETQIQELAAANQESSHVQQQALALEQQFLERTQALEAQIVALERTRAADQTTAEQGMRQLEQENAALKECRNEYERSLQNHQFELKKLKEEWSQREIVSVAMAQALEEVRKQREEFQQQAANLTAIIDEKEQNLREKTEVLLQKEQEILQLERGHNSALLQIHQLQAELEALRTLKAEEAAVVAEQEDLLRLRGPLQAEALSVNESHVTSRAMQDPVFQLPTAGRTPNGEVGAMDLTQLQKEKQDLEQQLLEKNKTIKQMQQRMLELRKTLQKELKIRPDNELFEVREKPGPEMANMAPSVTNNTDLTDAREINFEYLKHVVLKFMSCRESEAFHLIKAVSVLLNFSQEEENMLKETLEYKMSWFGSKPAPKGSIRPSISNPRIPWS
B3: arfaptin-1b (Arf-interacting protein 1b, long isoform), endogenous (natural protein, human (endogenous in HeLa), UniProt P53367 1-373, looked up)
chain: MAQESPKNSAAEIPVTSNGEVDDSREHSFNRDLKHSLPSGLGLSETQITSHGFDNTKEGVIEAGAFQGSPAPPLPSVMSPSRVAASRLAQQGSDLIVPAGGQRTQTKSGPVILADEIKNPAMEKLELVRKWSLNTYKCTRQIISEKLGRGSRTVDLELEAQIDILRDNKKKYENILKLAQTLSTQLFQMVHTQRQLGDAFADLSLKSLELHEEFGYNADTQKLLAKNGETLLGAINFFIASVNTLVNKTIEDTLMTVKQYESARIEYDAYRTDLEELNLGPRDANTLPKIEQSQHLFQAHKEKYDKMRNDVSVKLKFLEENKVKVLHNQLVLFHNAIAAYFAGNQKQLEQTLKQFHIKLKTPGVDAPSWLEEQ
notes: arfaptin-1b, long isoform of arfaptin-1 with an insertion (residues 69-100) absent from arfaptin-1a; source: endogenous, HeLa lysate
B4: arfaptin-2, endogenous (protein, UniProt P53365 1-341)
chain: MTDGILGKAATMEIPIHGNGEARQLPEDDGLEQDLQQVMVSGPNLNETSIVSGGYGGSGDGLIPTGSGRHPSHSTTPSGPGDEVARGIAGEKFDIVKKWGINTYKCTKQLLSERFGRGSRTVDLELELQIELLRETKRKYESVLQLGRALTAHLYSLLQTQHALGDAFADLSQKSPELQEEFGYNAETQKLLCKNGETLLGAVNFFVSSINTLVTKTMEDTLMTVKQYEAARLEYDAYRTDLEELSLGPRDAGTRGRLESAQATFQAHRDKYEKLRGDVAIKLKFLEENKIKVMHKQLLLFHNAVSAYFAGNQKQLEQTLQQFNIKLRPPGAEKPSWLEEQ
B5: arfaptin-1b-myc (protein, UniProt P53367 1-373)
chain: B3 chain
B6: arfaptin-1b-F317A-myc (protein, UniProt P53367 1-373)
chain: B3 chain with F317A
B7: arfaptin-1b-L23 (residues 143-373), GAL4-activation domain fusion (domain or fragment, UniProt P53367 143-373)
chain: ISEKLGRGSRTVDLELEAQIDILRDNKKKYENILKLAQTLSTQLFQMVHTQRQLGDAFADLSLKSLELHEEFGYNADTQKLLAKNGETLLGAINFFIASVNTLVNKTIEDTLMTVKQYESARIEYDAYRTDLEELNLGPRDANTLPKIEQSQHLFQAHKEKYDKMRNDVSVKLKFLEENKVKVLHNQLVLFHNAIAAYFAGNQKQLEQTLKQFHIKLKTPGVDAPSWLEEQ
B8: arfaptin-1b-L1 (residues 1-148), GAL4-activation domain fusion (domain or fragment, UniProt P53367 1-148)
chain: MAQESPKNSAAEIPVTSNGEVDDSREHSFNRDLKHSLPSGLGLSETQITSHGFDNTKEGVIEAGAFQGSPAPPLPSVMSPSRVAASRLAQQGSDLIVPAGGQRTQTKSGPVILADEIKNPAMEKLELVRKWSLNTYKCTRQIISEKLG
B9: GAL4-activation domain fusion of arfaptin-1a (protein, UniProt P53367-2 1-341)
chain: B1 chain
B10: GAL4-activation domain fusion of arfaptin-1b (protein, UniProt P53367 1-373)
chain: B3 chain
B11: arfaptin-1a-S1 (residues 1-116), GAL4-activation domain fusion (domain or fragment, UniProt P53367-2 1-116)
chain: MAQESPKNSAAEIPVTSNGEVDDSREHSFNRDLKHSLPSGLGLSETQITSHGFDNTKEGVIEAGAFQGGQRTQTKSGPVILADEIKNPAMEKLELVRKWSLNTYKCTRQIISEKLG

Target: T1, GST-Arl1QL (Arf-like protein 1, Gln71 to Leu, putative active GTP-bound form) (human)
Assay: pull-down; GST fusion proteins (5 μg) immobilized on glutathione-sepharose, incubated with GTPγS (QL) or GDP (TN); HeLa lysates (2.5 mg), endogenous proteins; 12.5% SDS-PAGE and western blotting; only the target purified

binding	Molecule
binds	golgin-245, endogenous (from UniProt Q13439 1-2230)
binds	B1
binds	B2
binds	B3
binds	B4

Target: T1, GST-Arl1QL (Arf-like protein 1, Gln71 to Leu, putative active GTP-bound form) (human)
Assay: pull-down; GST-Arl1QL immobilized on glutathione-sepharose, exchanged for GTPγS; precleared lysates of transfected HeLa cells (2.5 mg per 5 μg GST fusion) in NS buffer (20 mM HEPES pH 7.5, 100 mM NaCl, 5 mM MgCl2, 1 mM DTT), 4°C overnight; western blot with anti-myc; only the target purified

binding	Molecule
binds	B5
no binding	B6

Target: T2, LexA DNA-binding domain fusion of Arl1QL (human)
Assay: two-hybrid; small GTPase fused to the LexA DNA-binding domain, arfaptin-1 constructs fused to the GAL4-activation domain, co-transformed into yeast strain L40; colonies screened for histidine auxotrophy

binding	Molecule
binds	B7
no binding	B8
binds	B9
binds	B10
no binding	B11

— article PMC4366199, “Arfaptin-1 Negatively Regulates Arl1-Mediated Retrograde Transport” (PLoS ONE, 2015)
